{
  "source": "paper PMC9019100",
  "about": "“Development of NanoLuc-targeting protein degraders and a universal reporter system to benchmark tag-targeted degradation platforms” (Nature Communications, 2022)",
  "target": "Halo-EGFP-NanoLuc-FKBP^F36V (H-E-N-F) fusion protein (UniProt P0A3G2+P62942+Q9GV45, A155T/A167V/A172T/A224E/A31E/A60N/A81I/C128F/C176G/D78G/E160K/E257K/F37V/F95D/H272N/I117V/K175M/K195N/K70R/L47V/L54V/L88M/L99Q/M102K/N193R/N227D/P142E/P291S/Q151K/Q38R/Q45L/S2A/S58T/T264A/V71I/Y165I/Y273L/Y87F)",
  "sequence (Q9GV45 other isoform, or with tags, fused parts or gaps with the stated changes)": "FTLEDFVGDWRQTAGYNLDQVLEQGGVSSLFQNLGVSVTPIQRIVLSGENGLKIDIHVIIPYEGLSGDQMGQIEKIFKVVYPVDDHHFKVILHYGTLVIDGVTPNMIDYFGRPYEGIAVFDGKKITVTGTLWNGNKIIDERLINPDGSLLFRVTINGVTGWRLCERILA",
  "sequence (P0A3G2 other isoform, or with tags, fused parts or gaps with the stated changes)": "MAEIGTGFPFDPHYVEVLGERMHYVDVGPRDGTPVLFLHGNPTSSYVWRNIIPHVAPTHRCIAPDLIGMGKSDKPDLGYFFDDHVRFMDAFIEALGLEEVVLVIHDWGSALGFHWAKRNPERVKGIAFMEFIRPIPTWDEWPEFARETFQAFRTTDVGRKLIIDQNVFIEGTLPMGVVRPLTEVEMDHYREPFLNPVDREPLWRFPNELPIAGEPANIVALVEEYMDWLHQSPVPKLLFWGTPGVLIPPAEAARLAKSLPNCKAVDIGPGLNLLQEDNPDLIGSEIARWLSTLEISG",
  "sequence (P62942 whole entry F37V, the tested form may be a part)": "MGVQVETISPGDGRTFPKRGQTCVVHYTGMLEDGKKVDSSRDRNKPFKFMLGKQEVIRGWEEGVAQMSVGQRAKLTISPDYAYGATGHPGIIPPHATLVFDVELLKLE",
  "type": "cell-based",
  "note": "Where two headings read alike, the source gives them in different places.",
  "data": [
    {"smiles": "CCc1cccc(N(CC)C(=O)Cn2c(C(=O)NC3CCC(C(=O)NCCCCCCCC(=O)NCCCCCCC(=O)N[C@H](C(=O)N4C[C@H](O)C[C@H]4C(=O)NCc4ccc(-c5scnc5C)cc4)C(C)(C)C)CC3)cc3ccccc32)c1", "note": "(stereo partly drawn) [NV2]", "values": [
      {"measurement": "degradation of the H-E-N-F fusion protein by Western blot", "setting": "tested concentrations up to 16 μM, 5 h", "result": "unable to trigger degradation"}
    ]},
    {"smiles": "CC[C@H](C(=O)N1CCCC[C@H]1C(=O)O[C@H](CCc1ccc(OC)c(OC)c1)c1ccccc1OCC(=O)NCCCCCCC(=O)N[C@H](C(=O)N1C[C@H](O)C[C@H]1C(=O)N[C@@H](C)c1ccc(-c2scnc2C)cc1)C(C)(C)C)c1cc(OC)c(OC)c(OC)c1", "note": "[FV1]", "values": [
      {"measurement": "degradation of the H-E-N-F fusion protein by Western blot", "result": "complete degradation"}
    ]},
    {"smiles": "CC[C@H](C(=O)N1CCCC[C@H]1C(=O)O[C@H](CCc1ccc(OC)c(OC)c1)c1ccccc1OCC(=O)NCCCCCCOc1cccc2c1C(=O)N(C1CCC(=O)NC1=O)C2=O)c1cc(OC)c(OC)c(OC)c1", "note": "(stereo partly drawn) [FC1]", "values": [
      {"measurement": "degradation of the H-E-N-F fusion protein by Western blot", "setting": "100 nM, 5 h", "result": "almost completely degraded"}
    ]}
  ]
}
